Laboratory results reported in the supplement of paper PMC9135407.
Several values for one entry are separate records, joined by “and”; a condition that tells them apart may be missing. Equal values may be shown once. Where a name gives a salt, the structure may show the parent alone. The campaign covered roughly 5,800 compounds. About 620 (11%) showed activity.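 How the source made its calls: active = score above a cut-off or among the top three wells of a plate; in these data no inactive exceeds 0.85.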 This is a selection; strong and weak results do not stand in their true shares.

Tested on: primary human hepatic stellate cells (donor 1)
Assay: scaled lipid accumulation score (0 = DMSO-like, 1 = nortriptyline-like); higher = stronger HSC inactivation (lipid re-accumulation), active = hit call of the paper
Settings: 48 h
Method: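 Primary lipid accumulation screen in primary human hepatic stellate cell myofibroblasts (donor 1, passage 8) in 384-well plates. 100 nL of library compound was pin-transferred into 30 µL medium in duplicate, and cells were treated for 48 h. The 'Scaled' score combines distance from plate baseline, toxicity and reproducibility penalties, and is normalised to nortriptyline (positive) and DMSO (negative) controls on each plate. A hit is defined as scaled >0.85 or among the top 3 wells per plate.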

[1] = library stock concentration: 10 mM
[2] = library stock concentration: 3.33 mM
[3] = library stock concentration: 1 mM
[4] = library stock concentration: 100 uM
[5] = library stock concentration: 8.6 mM

CC(O)(CS(=O)(=O)c1ccc(F)cc1)C(=O)Nc1ccc(C#N)c(C(F)(F)F)c1 (stereo not drawn)
scaled lipid accumulation score [1]: inactive: ≤ 0

CC(O)(CS(=O)(=O)c1ccc(F)cc1)C(=O)Nc1ccc(C#N)c(C(F)(F)F)c1 (stereo not drawn) [Bicalutamide]
scaled lipid accumulation score [2]: inactive: 0.039 | scaled lipid accumulation score [1]: inactive: ≤ 0

CC(O)(CS(=O)(=O)c1ccc(F)cc1)C(=O)Nc1ccc(C#N)c(C(F)(F)F)c1 (stereo not drawn) [Bicalutamide (CDX)]
scaled lipid accumulation score [1]: inactive: ≤ 0

CCCn1c(=O)c2[nH]c(C3CCCC3)nc2n(CCCOC(=O)c2ccc(S(=O)(=O)F)cc2)c1=O
scaled lipid accumulation score [1]: inactive: 0.433

CN[C@@H]1C[C@H]2O[C@@](C)([C@@H]1OC)n1c3ccccc3c3c4c(c5c6ccccc6n2c5c31)C(=O)NC4 [Staurosporine]
scaled lipid accumulation score [3]: active: 0.546

CCCCCCC(C)(C)c1ccc([C@@H]2C[C@H](O)CC[C@H]2CCCO)c(O)c1
scaled lipid accumulation score [3]: inactive: 0.004

CCCCCC1OC1C/C=C\CCCCCCCC(=O)O (stereo not drawn) [Leukotoxin B (12,13-EODE)]
scaled lipid accumulation score [4]: inactive: ≤ -0.021

CNC1CC(c2ccc(Cl)c(Cl)c2)c2ccccc21 (stereo not drawn) [Indatraline]
scaled lipid accumulation score [1]: inactive: 0.64

CCC1(c2ccc(N)cc2)CCC(=O)NC1=O (racemic) [Dl-aminoglutethimide]
scaled lipid accumulation score [5]: inactive: 0.005

CCC1(c2ccc(N)cc2)CCC(=O)NC1=O (racemic) [(?)-p-Aminoglutethimide]
scaled lipid accumulation score [1]: inactive: 0.124

CCC1(c2ccc(N)cc2)CCC(=O)NC1=O (racemic) [Aminoglutethimide]
scaled lipid accumulation score [2]: inactive: ≤ 0 | scaled lipid accumulation score [5]: inactive: ≤ -0.001 | scaled lipid accumulation score [1]: inactive: ≤ 0

CCC1(c2ccc(N)cc2)CCC(=O)NC1=O (racemic) [Glutethimide, para-amino]
scaled lipid accumulation score: inactive: 0.02

Cc1ncsc1CCCl [Chlormethiazole hydrochloride]
scaled lipid accumulation score [1]: inactive: 0.01 and inactive: ≤ 0

O=[N+]([O-])O[C@H]1CO[C@H]2[C@@H]1OC[C@H]2O[N+](=O)[O-] [Isosorbide dinitrate]
scaled lipid accumulation score: inactive: ≤ 0 | scaled lipid accumulation score [1]: inactive: ≤ 0

CCN1C[C@]2(COC)CC[C@H](O)[C@]34C1[C@@](O)([C@@H](OC)[C@H]23)[C@@]1(O)C[C@H](OC)[C@H]2C[C@@H]4[C@@H]1[C@H]2OC [Delsoline]
scaled lipid accumulation score: inactive: ≤ 0

CCN1C[C@]2(COC)CC[C@H](OC)[C@]34C5C[C@@H]6[C@@H](OC)C[C@@]7(OCO[C@@]7(C13)[C@@H](O)C24)C5[C@H]6OC (stereo partly drawn) [Delcorine]
scaled lipid accumulation score: inactive: ≤ 0

CC(C)Oc1cccnc1N(C)C1CCN(Cc2ccccc2)CC1
scaled lipid accumulation score [1]: inactive: ≤ 0

Fc1ccc(C(OCCN2CCN(C/C=C/c3ccccc3)CC2)c2ccc(F)cc2)cc1
scaled lipid accumulation score [1]: inactive: 0.507

COC(=O)N1CCN(C(=O)Cc2ccc(Cl)c(Cl)c2)C(CN2CCCC2)C1.O=C(O)/C=C/C(=O)O (stereo not drawn)
scaled lipid accumulation score [1]: active: 0.902

COC[C@H]1OC(=O)c2coc3c2[C@@]1(C)C1=C(C3=O)C2CCC(=O)[C@@]2(C)C[C@H]1OC(C)=O (stereo partly drawn) [Wortmannin from Penicillium funiculosum]
scaled lipid accumulation score [1]: inactive: ≤ 0

CCCCC1(C2CCCC2)Cc2cc(OCCCC(=O)O)c(Cl)c(Cl)c2C1=O (stereo not drawn)
scaled lipid accumulation score [1]: inactive: 0.086

Cl.Clc1ccc(N2CCN(Cc3c[nH]c4ncccc34)CC2)cc1 [L-745,870 hydrochloride]
scaled lipid accumulation score [1]: active: 0.902

CC1=CCCC2C1(C)CCC(C)C2(C)CC/C(C)=C/Cn1c[n+](C)c2c(N)ncnc21 (stereo not drawn) [Agelasine (stereochemistry of diterpene unknown)]
scaled lipid accumulation score [1]: inactive: 0.317

CC(C)C[C@H]1C(=O)N2CCC[C@H]2[C@]2(O)O[C@](NC(=O)[C@@H]3C=C4c5cccc6[nH]cc(c56)C[C@H]4N(C)C3)(C(C)C)C(=O)N12 [Ergocryptine-alpha]
scaled lipid accumulation score: inactive: ≤ 0

Cl.Oc1ccc2c3c1O[C@H]1c4[nH]c5ccccc5c4C[C@@]4(O)C(C2)N(CC2CC2)CC[C@]314 [Naltrindole hydrochloride]
scaled lipid accumulation score [1]: active: 1.33

Cl.Cl.Fc1ccc(C(OCCN2CCN(CCCc3ccccc3)CC2)c2ccc(F)cc2)cc1
scaled lipid accumulation score [1]: active: 0.942

O=C1C2CCN(CC2)C1(CO)CO
scaled lipid accumulation score (library stock concentration: 27 mM): active: 0.911

NCC1(CC(=O)O)CCCCC1 [Gabapentin]
scaled lipid accumulation score: inactive: ≤ 0 | scaled lipid accumulation score [3]: inactive: 0.002 | scaled lipid accumulation score [1]: inactive: 0.292 and inactive: ≤ -0.027

O=c1cccc2n1C[C@@H]1CNC[C@H]2C1 [(-)-Cytisine]
scaled lipid accumulation score [1]: inactive: 0.005

O=c1cccc2n1C[C@@H]1CNC[C@H]2C1 [Cytisine (-)]
scaled lipid accumulation score: inactive: ≤ 0

O=c1cccc2n1C[C@@H]1CNC[C@H]2C1 [Cytisine]
scaled lipid accumulation score [2]: inactive: ≤ 0 | scaled lipid accumulation score [1]: inactive: ≤ 0 and inactive: ≤ -0.019

CC[C@@H](C)C(=O)O[C@H]1[C@H](O)[C@H]2[C@@H](CN3C[C@@H](C)CC[C@H]3[C@@]2(C)O)[C@@H]2C[C@]34O[C@]5(O)[C@@H](OC(=O)[C@@](C)(O)CC)CC[C@@]3(C)[C@@H]5[C@@H](OC(C)=O)[C@@H](OC(C)=O)[C@H]4[C@@]21O [Protoveratrine A]
scaled lipid accumulation score: inactive: ≤ 0

CC[C@@H](C)C(=O)O[C@H]1[C@H](O)[C@H]2[C@@H](CN3C[C@@H](C)CC[C@H]3[C@@]2(C)O)[C@@H]2C[C@]34O[C@]5(O)[C@@H](OC(=O)[C@@](C)(O)CC)CC[C@@]3(C)[C@@H]5[C@@H](OC(C)=O)[C@@H](OC(C)=O)[C@H]4[C@@]21O [Protoveratrine a]
scaled lipid accumulation score [1]: inactive: ≤ 0

NC(CCP(=O)(O)O)C(=O)O (stereo not drawn) [(?)-2-Amino-4-phosphonobutyric acid]
scaled lipid accumulation score [1]: inactive: ≤ 0

COc1ccc2c(c1O)-c1cccc3c1[C@@H](C2)N(C)CC3 [R(-)-Apocodeine hydrochloride]
scaled lipid accumulation score [1]: inactive: 0.627

CCNC(=O)C1OC(n2cnc3c(N)ncnc32)C(O)C1O (stereo not drawn) [5'-N-Ethylcarboxamidoadenosine (NECA)]
scaled lipid accumulation score (library stock concentration: 16.2 mM): inactive: ≤ -0.021

C[N+]1(C)CCc2cc3c(cc2[C@H]1[C@@H]1OC(=O)c2c1ccc1c2OCO1)OCO3 [(-)-Bicuculline methochloride]
scaled lipid accumulation score [1]: inactive: ≤ 0

C[N+]1(C)CCc2cc3c(cc2[C@H]1[C@@H]1OC(=O)c2c1ccc1c2OCO1)OCO3 [(-)-Bicuculline methbromide, 1(S), 9(R)]
scaled lipid accumulation score [1]: inactive: 0.055

C[N+]1(C)CCc2cc3c(cc2[C@H]1[C@@H]1OC(=O)c2c1ccc1c2OCO1)OCO3 [(-)-Bicuculline methiodide]
scaled lipid accumulation score [1]: inactive: 0.08

O=c1[nH]oc2c1CCNC2 [THIP Hydrochloride]
scaled lipid accumulation score: inactive: ≤ 0

O=c1[nH]oc2c1CCNC2 [THIP hydrochloride]
scaled lipid accumulation score [1]: inactive: ≤ 0

C[C@H](N)C(=O)N[C@@H](C)C(=O)N[C@@H](Cc1ccccc1)C(=O)CCl
scaled lipid accumulation score (library stock concentration: 14.7 mM): inactive: 0.708

CCCCC/C=C\C/C=C\C/C=C\C/C=C\CCCC(=O)OCCN [O-Arachidonoyl Ethanolamine (hydrochloride)]
scaled lipid accumulation score [3]: inactive: 0.049

O=C(O)/C=C\C(=O)O.O=C1/C(=C/c2ccccc2)C[C@@]2(O)C3Cc4ccc(O)c5c4[C@@]2(CCN3CC2CC2)[C@H]1O5 [BNTX maleate]
scaled lipid accumulation score [1]: active: 0.851

c1cncc([C@@H]2CCCCN2)c1 [Anabasine]
scaled lipid accumulation score: inactive: ≤ 0

COc1cc(C(O)CN)ccc1O (stereo not drawn)
scaled lipid accumulation score [1]: inactive: ≤ -0.055

CC(=O)O[C@H]1C(=O)[C@@]2(C)[C@H]([C@H](OC(=O)c3ccccc3)[C@]3(O)C[C@H](O)C(C)=C1C3(C)C)[C@]1(OC(C)=O)CO[C@@H]1C[C@@H]2O [Baccatin iii]
scaled lipid accumulation score [1]: inactive: ≤ 0

CC(C)(O)[C@@H]1[C@H]2OC(=O)[C@@H]1[C@]1(O)C[C@H]3O[C@]34C(=O)O[C@H]2[C@]14C [Picrotin]
scaled lipid accumulation score [1]: inactive: 0.167

C[C@@H]1C[C@@H]([C@H](O)CC2CC(=O)NC(=O)C2)C(=O)[C@@H](C)C1 [Cycloheximide]
scaled lipid accumulation score: inactive: 0.724 | scaled lipid accumulation score (library stock concentration: 7.1 mM): inactive: 0.685 | scaled lipid accumulation score [1]: inactive: 0.767 | scaled lipid accumulation score (library stock concentration: 17.8 mM): inactive: 0.647

CCCCC/C=C\CC1OC1CCCCCCCC(=O)O (stereo not drawn) [Leukotoxin A (9,10-EODE)]
scaled lipid accumulation score [4]: inactive: 0.026

O=C(O)c1nn(Cc2ccc(Cl)cc2Cl)c2ccccc12 [Lonidamine]
scaled lipid accumulation score [2]: inactive: ≤ 0 | scaled lipid accumulation score [1]: inactive: ≤ 0 and inactive: 0.005 and inactive: ≤ -0.006

COc1ccc2c(c1OC)C(=O)O[C@@H]2[C@H]1c2cc3c(cc2CCN1C)OCO3 [Hydrastine hydrochloride]
scaled lipid accumulation score: inactive: 0.118

COc1ccc2c(c1OC)C(=O)O[C@@H]2[C@H]1c2cc3c(cc2CCN1C)OCO3 [Hydrastine (1r, 9s)]
scaled lipid accumulation score (library stock concentration: 5.2 mM): inactive: ≤ 0

Cc1cc(C(C#N)c2ccc(Cl)cc2)c(Cl)cc1NC(=O)c1cc(I)cc(I)c1O (stereo not drawn) [Closantel]
scaled lipid accumulation score (library stock concentration: 3 mM): inactive: ≤ 0 | scaled lipid accumulation score [2]: inactive: ≤ 0 | scaled lipid accumulation score [1]: inactive: ≤ -0.001

CC(C)(C)c1cc(C=C(C#N)C#N)cc(C(C)(C)C)c1O [Tyrphostin A9]
scaled lipid accumulation score [1]: inactive: 0.728

CC(C)(C)c1cc(C=C(C#N)C#N)cc(C(C)(C)C)c1O [Tyrphostin 9]
scaled lipid accumulation score [2]: inactive: 0.175 | scaled lipid accumulation score (library stock concentration: 17.7 mM): inactive: 0.752

O=C(O)C(Cl)Cl
scaled lipid accumulation score [1]: inactive: ≤ 0

CCCCOC(=O)c1ccccc1C(=O)OCCCC [Dibutyl phthalate]
scaled lipid accumulation score (library stock concentration: 7.2 mM): inactive: 0.017

CCOC(=O)c1ncn2c1[C@@H]1CCCN1C(=O)c1cc(OC)ccc1-2
scaled lipid accumulation score [1]: inactive: ≤ -0.041 and inactive: 0.027
